These results are taken from the supplement of paper PMC11417369.

± gives the standard deviation of the averaged measurements. This is one part of the list.

This test has as its system PfAP2-LT AP2 domain (GST-tagged). The test can be described thus: gcPBM binding intensity (ln(normalized median fluorescence intensity)); higher = stronger DNA binding. Summed up: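 Binding intensity is defined as the maximum Masliner-normalised natural-log median intensity across replicate spots for either probe orientation. It was measured on an Agilent 4 × 180k array of primer-extended double-stranded 36-bp intergenic genomic probes and negative controls, to which GST-tagged P. falciparum DNA-binding domains made in E. coli were applied for 1 h in 1× PBS with 1% milk, 0.2 mg/ml BSA, 0.5% salmon testes DNA and 0.03% Triton X-100. Detection was by Alexa488 anti-GST antibody and scanning at 488 nm.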
Turning to “GGAACTTAAAAAAAATGTACTTATAAAAAAGGAAAT [XGTACX_site8186]”, the “gcPBM binding intensity (ln)” value was determined as 8.63 ± 0.44. As for “AAAAAAATATATATATGTACATAACTTTGTTGTGAT [XGTACX_site5243]”, the “gcPBM binding intensity (ln)” value was 8.87 ± 0.46. Turning to “TGTTAAATTATTTATCAGATTATTATTTGTAAATAA [CACACA_negctrl_site1535]”, the “gcPBM binding intensity (ln)” value was determined as 8.17 ± 0.35. With “TTTGAACATTTTGCAAGTACAAAAAAATAATATATC [XGTACX_site8079]”, the “gcPBM binding intensity (ln)” value was determined as 8.65 ± 0.42. As for “TATATATATATATATACACACATATATATATTTTTC [CACACA_site3983]”, the figure is 9.78 ± 0.29; as for “CATTAAACCGTGGGAGCACACACACCCACCCACCCA [CACACA_site8000]”, 9.57 ± 0.2; as for “AATTTAAAGAATTGTAGTACAATGAAATATATATAA [XGTACX_site7970]”, 8.74 ± 0.52. As to “ATCATTATATTATGGTGTACCCATATATAATTATCA [XGTACX_site551]”, the “gcPBM binding intensity (ln)” value was determined as 8.69 ± 0.51. As for “AACAATGGATTATTCACACATAAAAAAATTCACATT [CACACA_site5437]”, the figure is 8.9 ± 0.37.

In the case of “AATACCTATGGAATTAATAATATGTGTACAGACACA [TGCATGCA_negctrl_site547]”, the “gcPBM binding intensity (ln)” value was 8.72 ± 0.42. Regarding “GTTATTGTAAAAAGATTACACACGTTCTATATACTT [CACACA_site2473]”, the “gcPBM binding intensity (ln)” value stood at 9.04 ± 0.39. As to “GGAATATGTATATTTTGTACGTATACATTTTTTGGG [XGTACX_site7681]”, the “gcPBM binding intensity (ln)” value came to 9.12 ± 0.25. For “GATATATTTTATATATGTACATACAGTGGTAAATAT [XGTACX_site1324]”, the “gcPBM binding intensity (ln)” value was 8.89 ± 0.35. For the sequence “TTTATACAAAAAAACAAAATCAAACAAAAAAAAAAA [CACACA_negctrl_site252]”, the “gcPBM binding intensity (ln)” value was 8.46 ± 0.57. With “ATGTAATGTTATGTTATGTTTTTTTTTTTTTTGTGT [CACACA_negctrl_site1264]”, the “gcPBM binding intensity (ln)” value came to 9.02 ± 0.53.

Turning to “AAAATTATATATTTTAGTACATAAAATATTGACATA [XGTACX_site2581]”, the “gcPBM binding intensity (ln)” value turned out to be 8.45 ± 0.42. Regarding “TTTTAAACAGGACACACACACATATATATATATATA [CACACA_site4664]”, the “gcPBM binding intensity (ln)” value was 9.96 ± 0.17. “AGTACGTAAATTATAATACACACTATAGGATATTCT [CACACA_site2559]”: the “gcPBM binding intensity (ln)” value stood at 9.12 ± 0.43.

Regarding “TTTTCTACATCTTGTTGTACGAAAAATAAAAAAAAT [XGTACX_site4620]”, the “gcPBM binding intensity (ln)” value was 8.3 ± 0.34. Regarding “ATATTATAATATTTATGTACATATATATAATATATA [XGTACX_site1633]”, the “gcPBM binding intensity (ln)” value came to 8.61 ± 0.35. In the case of “AATATATATTTATAAACACACACCAAAATTTGTGCT [CACACA_site3091]”, the “gcPBM binding intensity (ln)” value stood at 9.18 ± 0.42. As for “ACATTTTGTGTTTTAGCACACAATTTTTCAGAATAT [CACACA_site2961]”, the “gcPBM binding intensity (ln)” value was 8.92 ± 0.44. With “TATTAGCATGTTATTACACACAATATAAGATATATA [CACACA_site6775]”, the “gcPBM binding intensity (ln)” value turned out to be 8.84 ± 0.31. Under “AAAATATTTATGTATGCATGTTGTAATATTTCTTTA [TGCATGCA_site296]” stands 8.71 ± 0.38; under “TAAAAAAAAACAGAAACACACATTATTCATATATAT [CACACA_site2049]”, 8.85 ± 0.45; under “ATTTCCCCTTTTTATTGTACATTTTTATTTGTTACT [XGTACX_site4845]”, 9.34 ± 0.54.

As for “TATGCTATATATTTAGTGCATATATATAACTTTTAT [GTGCAC_site9902]”, the “gcPBM binding intensity (ln)” value came out at 8.59 ± 0.35. As to “TGTATAAATATATATACACACATATTTATATATATA [CACACA_site755]”, the “gcPBM binding intensity (ln)” value was found to be 8.77 ± 0.34. Take “TATATATGTATCATTACACACATGTATACTTATTTG [CACACA_site4138]”: the “gcPBM binding intensity (ln)” value came out at 9.26 ± 0.38. Under “ATATATGTGCCCATATATATATATATAAATATATGT [GTGCAC_negctrl_site226]” stands 9.21 ± 0.32.

Take “TACATTTGTATAAATAGTACGCGAAAACAAAAAAAA [XGTACX_site6246]”: the “gcPBM binding intensity (ln)” value stood at 8.94 ± 0.46.

For “TCATAAATGAAACACACACACACATCTGGATACCCC [CACACA_site3332]”, the “gcPBM binding intensity (ln)” value is 9.925 ± 0.0071.

In the case of “ATTATATATATAAAGTGTACAAAAAAAAAAAAAAAA [XGTACX_site3134]”, the “gcPBM binding intensity (ln)” value came to 8.66 ± 0.61. For “AATCAATATAAATAAAATTTTTAATTTTAACCCTAA [GTGCAC_negctrl_site266]”, the “gcPBM binding intensity (ln)” value was determined as 8.28 ± 0.47. As for “AATGTCCTTATTTGCACACACACATATAAGAAATTT [CACACA_site3186]”, the figure is 9.51 ± 0.36; as for “ATTTGAGAGTTAACAAAATATTTGGCCATCTTTTAT [XGTACX_negctrl_site447]”, 8.69 ± 0.49.

As to “TATAATAAATCATATGCATGTTGAAAAAAAAAAAAA [TGCATGCA_site923]”, the “gcPBM binding intensity (ln)” value was determined as 8.55 ± 0.44. As for “AACTCATAGCGGTGTGCACACAAAAAATTAAAAAAA [CACACA_site3033]”, the figure is 9.55 ± 0.54; as for “TATAAAATAAAAATTATATATTTTAAATGGATACAA [TGCATGCA_negctrl_site284]”, 8.3 ± 0.59; as for “AAAACAAATTAAAATCGTACAATTATAATGTTAATG [XGTACX_site180]”, 8.73 ± 0.49. For the sequence “ATAGCTAAGATAGCTTGTACATATATTTACATATAT [XGTACX_site3694]”, the “gcPBM binding intensity (ln)” value was 8.99 ± 0.52. “ATTTAAATGAAAAAATGTACAAAAAGATTTAAACTC [XGTACX_site1489]”: the “gcPBM binding intensity (ln)” value is 9.01 ± 0.49. Turning to “ATGCACATTTATAAAAGTACATGTATGTAATATGTT [XGTACX_site830]”, the “gcPBM binding intensity (ln)” value amounted to 9.02 ± 0.49. Under “TTGTATTTACACGATCAACCAAATGGTATATAAATA [GTGCAC_negctrl_site167]” stands 8.61 ± 0.45; under “ATATGTAGTTTTTACCTAATAAAAAAAAAAAAAAAA [CACACA_negctrl_site672]”, 8.48 ± 0.58. Turning to “AAATCATTCCTTTATTCACACAATATCTGTATTTAT [CACACA_site4407]”, the “gcPBM binding intensity (ln)” value worked out at 8.97 ± 0.45. As for “TAAACATATAAAAAGGGTACACATTAAACATAGTAT [XGTACX_site7096]”, the figure is 9.01 ± 0.4; as for “TTAAGCCGCAATATGGGTACATAGGAAGAAGGGGAA [XGTACX_site8397]”, 8.74 ± 0.54. With “ATATATAAAAATATTTGTACATATAGTTATATTTAT [XGTACX_site6114]”, the “gcPBM binding intensity (ln)” value turned out to be 8.73 ± 0.42. Turning to “TTCTTTGCTTCTGTTTCACACATTTTTAAAATAAGC [CACACA_site4741]”, the “gcPBM binding intensity (ln)” value came out at 8.9 ± 0.42. Take “TTATAATTAAGATATAATCAATAATAACAAATGAAC [CACACA_negctrl_site1690]”: the “gcPBM binding intensity (ln)” value came to 8.64 ± 0.52. Consider “TTTCTTTTTCTAGTTATTTTTACTTATCCCTAATTT [TGCATGCA_negctrl_site460]”, for which the “gcPBM binding intensity (ln)” value was found to be 8.62 ± 0.56. Take “TTAAAGGGAATGTATACACACGTTTCTCTATGTTAT [CACACA_site4793]”: the “gcPBM binding intensity (ln)” value came out at 8.96 ± 0.4.

For “TAATTCCATAAGTAAACACACAAATGCCAAAATTTT [CACACA_site3205]”, the “gcPBM binding intensity (ln)” value was determined as 8.84 ± 0.4. As for “GTGCGTGCGTGTACTTAACACACATAATATGTATTT [CACACA_site8336]”, the figure is 9.21 ± 0.42.
